The values below come from a collection of fitness landscapes (doi:10.1016/j.celrep.2020.107928).

Sequences and labels used below:
B1: Caulobacter ParB omega fusion; a variant is named by its letters at X, in order, B8GW30 (parent)
chain: MESVVVGEPGMSEGRRGLGRGLSALLGEVDAAPAQAPGEQLGGSREAPIEILQRNPDQPRRTFREEDLEDLSNSIREKGVLQPILVRPSPDTAGEYQIVAGERAWRAAQRAGLKTVPIMVRELDDLAVLEIGIIENVQRADLNVLEEALSYKVLMEKFERTQENIAQTIGKSXSHVANXMRLLXLPDEVQSYLVSGELTAXHARAIAAAADPVALAKQIIEGGLSVRETEALARKAPNLSAGKSKGGRPPRVKDTDTQALESDLSSVLGLDVSIDHRGSTGTLTITYATLEQLDDLCNRLTRGI

In all, about 81,000 sequences were measured (“one-hybrid fitness for binding NBS DNA”: median about -0.1, highest 2% from about 0.36 on). The list shows a part of the results.

The variants in the assay derive from B1. As to the kind of experiment: one-hybrid fitness for binding NBS DNA (the Noc-binding site; scaled: cognate 1, non-cognate 0); higher = stronger binding. As to conditions: with NBS DNA site. The procedure, abridged: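 On M9-minus-histidine containing 0.1 mM IPTG and 5 mM 3-AT, E. coli USO cells with a HIS3 reporter, site 19 bp from the promoter, grew 48 hours at 37°C to select Caulobacter ParB libraries randomised at four specificity codons. Plasmids from before and after were Illumina-sequenced, with three replicate libraries pooled and variants under 10 reads left out. Fitness is the log change in variant-to-wild-type read ratio, rescaled against cognate and non-cognate.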
For the variant VYGT, the “one-hybrid fitness for binding NBS DNA” value is no more than 0.2.
With QSCT the figure was 0.386; with ITNG, no more than 0.2; with ACDG, no more than 0.2.
The result for GHFS reads no more than 0.2; that for THGG, no more than 0.2; that for VHAY, no more than 0.2.
The result for SDRG reads no more than 0.2.
With GLDG, the “one-hybrid fitness for binding NBS DNA” value is no more than 0.2.
The result for QATF reads no more than 0.2; that for WLPE, no more than 0.2; that for GCMV, no more than 0.2.
The result for ICSE reads no more than 0.2; that for CMVE, no more than 0.2; that for HHCR, no more than 0.2.
With SAQN the figure was no more than 0.2; with AGSV, no more than 0.2.
With AETT, the “one-hybrid fitness for binding NBS DNA” value is no more than 0.2.
The result for CRNS reads no more than 0.2.
With RWKN the figure was no more than 0.2; with ITSC, no more than 0.2.
With PIAK the figure was no more than 0.2; with CQST, no more than 0.2.
Consider RDLS, for which the “one-hybrid fitness for binding NBS DNA” value is no more than 0.2.
Turning to DCPE, the “one-hybrid fitness for binding NBS DNA” value was no more than 0.2.
The result for NLSY reads no more than 0.2; that for HYLG, no more than 0.2.
Consider LRRV, for which the “one-hybrid fitness for binding NBS DNA” value was no more than 0.2.
The result for RQTA reads no more than 0.2; that for HPWC, no more than 0.2; that for WAPC, no more than 0.2.
The result for GEVG reads no more than 0.2; that for PHMS, no more than 0.2.
The result for HEMS reads no more than 0.2; that for THKT, no more than 0.2; that for QRNQ, 0.439.
For HWKT, the “one-hybrid fitness for binding NBS DNA” value is no more than 0.2.
Turning to FQIC, the “one-hybrid fitness for binding NBS DNA” value was no more than 0.2.
The result for TDEN reads no more than 0.2; that for QTFR, 0.584; that for YDSV, no more than 0.2.
With RDTG the figure was no more than 0.2; with KTWT, no more than 0.2.
Consider PTMP, for which the “one-hybrid fitness for binding NBS DNA” value was no more than 0.2.
The result for YHYT reads no more than 0.2; that for DQAA, no more than 0.2.
For VRIT, the “one-hybrid fitness for binding NBS DNA” value was no more than 0.2.
The result for SGFG reads no more than 0.2; that for GICR, no more than 0.2; that for DTGS, no more than 0.2.
With MNML the figure was no more than 0.2.
With AYRA the figure was no more than 0.2; with ATGF, no more than 0.2; with TMDG, no more than 0.2.
For the variant NLVA, the “one-hybrid fitness for binding NBS DNA” value is no more than 0.2.
With QMDI the figure was no more than 0.2; with MRNW, no more than 0.2; with CEES, no more than 0.2.
The result for FWPV reads no more than 0.2; that for RSQA, no more than 0.2.
With RIAC the figure was no more than 0.2; with LRNN, no more than 0.2; with HMDC, no more than 0.2.
As for RSCY, the “one-hybrid fitness for binding NBS DNA” value was no more than 0.2.
On to VLRE, for which the “one-hybrid fitness for binding NBS DNA” value was no more than 0.2.
On to KCSC, for which the “one-hybrid fitness for binding NBS DNA” value was no more than 0.2.
With TVYP the figure was no more than 0.2; with TWLF, no more than 0.2.
The result for GNRG reads no more than 0.2.
The result for HTPA reads no more than 0.2; that for NTSS, no more than 0.2.
Regarding PKRV, the “one-hybrid fitness for binding NBS DNA” value is no more than 0.2.
The result for DNGY reads no more than 0.2; that for CDGR, no more than 0.2.
Turning to DVII, the “one-hybrid fitness for binding NBS DNA” value was no more than 0.2.
As for RSCE, the “one-hybrid fitness for binding NBS DNA” value was no more than 0.2.
The result for ITQR reads no more than 0.2; that for QPQC, no more than 0.2; that for TRFT, 0.207.
As to LASM, the “one-hybrid fitness for binding NBS DNA” value was no more than 0.2.
As for GYSL, the “one-hybrid fitness for binding NBS DNA” value was no more than 0.2.
With SAKG the figure was no more than 0.2.
The result for LHDS reads no more than 0.2; that for NPNW, no more than 0.2; that for PHRA, no more than 0.2.
With RPRM the figure was no more than 0.2; with CSYR, no more than 0.2; with LTAC, no more than 0.2.
Regarding ALTE, the “one-hybrid fitness for binding NBS DNA” value was no more than 0.2.
With NYVR the figure was no more than 0.2; with EPKA, no more than 0.2.
The result for QERP reads no more than 0.2; that for WSTT, no more than 0.2.
Turning to VSRS, the “one-hybrid fitness for binding NBS DNA” value was no more than 0.2.
The result for LYAK reads no more than 0.2; that for VLDI, no more than 0.2; that for SKRL, no more than 0.2.
On to FKAW, for which the “one-hybrid fitness for binding NBS DNA” value is no more than 0.2.
With ALVW the figure was no more than 0.2; with SGIS, no more than 0.2; with GKER, no more than 0.2.
The result for STPV reads no more than 0.2; that for INMS, no more than 0.2.
With RIRS the figure was 0.56; with HNPR, no more than 0.2; with PDKP, no more than 0.2.
REEM: the “one-hybrid fitness for binding NBS DNA” value was no more than 0.2.
The result for QAWS reads 0.216; that for EMST, no more than 0.2.
With FGRV the figure was no more than 0.2; with CLDA, no more than 0.2; with DLIA, no more than 0.2.
With HTGE the figure was no more than 0.2.
TPTL: the “one-hybrid fitness for binding NBS DNA” value was no more than 0.2.
In the case of HYKR, the “one-hybrid fitness for binding NBS DNA” value was no more than 0.2.
With VETT the figure was no more than 0.2; with LRHG, no more than 0.2.
Take DKER: the “one-hybrid fitness for binding NBS DNA” value is no more than 0.2.
With VKGS the figure was no more than 0.2.
The result for HFTP reads no more than 0.2; that for RNAT, no more than 0.2.
For KLAD, the “one-hybrid fitness for binding NBS DNA” value was no more than 0.2.
With RLRT the figure was 0.657; with HPNC, no more than 0.2; with ACVH, no more than 0.2.
On to ENEG, for which the “one-hybrid fitness for binding NBS DNA” value is no more than 0.2.
With TLRK the figure was no more than 0.2; with ESTL, no more than 0.2.
With QDAQ the figure was no more than 0.2.
With RHDD the figure was no more than 0.2.
With YKNF, the “one-hybrid fitness for binding NBS DNA” value is no more than 0.2.
With TSEH the figure was no more than 0.2; with RMQQ, no more than 0.2; with HHRS, no more than 0.2.
The result for NDGS reads no more than 0.2; that for NWAF, no more than 0.2.
With MWCC the figure was no more than 0.2.
Consider DTKR, for which the “one-hybrid fitness for binding NBS DNA” value stood at 0.321.
In the case of TVMK, the “one-hybrid fitness for binding NBS DNA” value is no more than 0.2.
With TGCV the figure was no more than 0.2.
With TWHR the figure was no more than 0.2; with ILLI, no more than 0.2.
With TCRK the figure was no more than 0.2.
On to GFTI, for which the “one-hybrid fitness for binding NBS DNA” value is no more than 0.2.
With RLRW the figure was no more than 0.2.
The result for IDRG reads no more than 0.2.
With RHTK the figure was no more than 0.2; with KMKI, no more than 0.2; with GVAN, no more than 0.2.
NYHF: the “one-hybrid fitness for binding NBS DNA” value is no more than 0.2.
As to HGAM, the “one-hybrid fitness for binding NBS DNA” value is no more than 0.2.
For RSPG, the “one-hybrid fitness for binding NBS DNA” value is no more than 0.2.
With RSTD the figure was no more than 0.2.
